Experimental data: paper PMC5577129
No constants are given. Whether binding was seen depends on the method and setting. In cells and extracts the contact can be indirect. Some entries that bind do so weakly or less than the wild type. Tags and fused reporters may be left off the sequences shown.

T1: AtSPO11-1 (BiFC fusion) (Arabidopsis thaliana) (UniProt Q9M4A2)
T1 sequence: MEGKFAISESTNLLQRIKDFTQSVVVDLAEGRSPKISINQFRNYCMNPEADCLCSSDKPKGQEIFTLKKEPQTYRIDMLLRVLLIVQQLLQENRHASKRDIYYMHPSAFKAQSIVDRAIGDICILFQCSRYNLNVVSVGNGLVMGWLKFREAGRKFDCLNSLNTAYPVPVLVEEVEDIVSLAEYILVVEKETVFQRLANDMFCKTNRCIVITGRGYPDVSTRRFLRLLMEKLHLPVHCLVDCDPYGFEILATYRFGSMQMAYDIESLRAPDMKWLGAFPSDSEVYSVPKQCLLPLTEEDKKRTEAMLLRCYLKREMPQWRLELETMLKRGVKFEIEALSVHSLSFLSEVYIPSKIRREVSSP

T2: AtDFO (BiFC fusion) (Arabidopsis thaliana) (UniProt Q8RX33)
T2 sequence: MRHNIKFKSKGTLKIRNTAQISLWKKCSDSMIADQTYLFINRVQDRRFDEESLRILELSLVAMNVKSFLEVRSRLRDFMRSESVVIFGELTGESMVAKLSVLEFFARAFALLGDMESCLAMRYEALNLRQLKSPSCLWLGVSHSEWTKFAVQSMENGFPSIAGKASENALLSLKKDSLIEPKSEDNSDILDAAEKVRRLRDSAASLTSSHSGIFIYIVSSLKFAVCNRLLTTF

T3: AtSPO11-2 (BiFC fusion) (Arabidopsis thaliana) (UniProt Q9M4A1)
T3 sequence: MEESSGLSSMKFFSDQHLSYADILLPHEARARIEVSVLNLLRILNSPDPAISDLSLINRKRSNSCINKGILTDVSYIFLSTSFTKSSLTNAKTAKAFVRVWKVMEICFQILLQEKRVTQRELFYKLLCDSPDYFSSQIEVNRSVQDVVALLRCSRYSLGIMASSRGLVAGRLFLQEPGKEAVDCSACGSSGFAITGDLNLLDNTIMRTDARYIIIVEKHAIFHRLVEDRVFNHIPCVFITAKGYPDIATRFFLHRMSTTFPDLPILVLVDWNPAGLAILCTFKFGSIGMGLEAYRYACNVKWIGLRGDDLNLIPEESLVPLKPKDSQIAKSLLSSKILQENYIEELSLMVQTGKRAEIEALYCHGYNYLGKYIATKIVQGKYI

T4: AtPRD3 (BiFC fusion) (Arabidopsis thaliana) (UniProt Q0WWX5)
T4 sequence: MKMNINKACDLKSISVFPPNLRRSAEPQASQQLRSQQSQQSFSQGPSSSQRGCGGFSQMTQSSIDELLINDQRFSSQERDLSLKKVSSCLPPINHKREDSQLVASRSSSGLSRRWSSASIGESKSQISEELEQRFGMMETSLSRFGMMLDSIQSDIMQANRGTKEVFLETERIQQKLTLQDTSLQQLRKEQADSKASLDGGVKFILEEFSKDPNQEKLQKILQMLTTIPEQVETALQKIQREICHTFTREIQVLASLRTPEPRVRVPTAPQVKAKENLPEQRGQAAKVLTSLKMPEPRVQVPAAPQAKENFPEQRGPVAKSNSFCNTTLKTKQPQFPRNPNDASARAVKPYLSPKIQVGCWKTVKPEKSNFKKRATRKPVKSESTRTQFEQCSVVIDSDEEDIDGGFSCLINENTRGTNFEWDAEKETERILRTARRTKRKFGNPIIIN


Experiments:
Test in all cases: split reporter; BiFC, pSPYNE-35S and pSPYCE-35S, onion epidermal cells, gene gun; confocal microscopy 16–24 h after transformation
[1] = target: T1, AtSPO11-1 (BiFC fusion) (Arabidopsis thaliana)
[2] = target: T2, AtDFO (BiFC fusion) (Arabidopsis thaliana)
[3] = target: T3, AtSPO11-2 (BiFC fusion) (Arabidopsis thaliana)
[4] = target: T4, AtPRD3 (BiFC fusion) (Arabidopsis thaliana)

| binding [1] | binding [2] | binding [3] | binding [4] | Binder |
| --- | --- | --- | --- | --- |
| binds | binds | binds | binds | AtPRD1-A (1–388 aa) (BiFC fusion) (domain or fragment, UniProt O23277 1-388) MFFQHSQLQNSDHLLHESMADSNHQSLSPPCANGHRSTISLRDDQGGTFCLICFSNLVSDPRIPTVHVSYALHQLSIAISEPIFLRTLLSSHIHFLVSPLVHALSSIDDAPIAIQIMDMISLLCSVEESSIGEDFVERISDQLSSGALGWSRRQLHMLHCFGVLMSCENININSHIRDKEALVCQLVEGLQLPSEEIRGEILFALYKFSALQFTEQNVDGIEVLSLLCPKLLCLSLEALAKTQRDDVRLNCVALLTILAQQGLLANSHSNSASSMSLDEVDDDPMQTAENVAARPCLNVLFAEAIKGPLLSTDSEVQIKTLDLIFHYISQESTPSKQIQVMVEENVADYIFEILRLSECKDQVVNSCLRVLDLFSLAEHSFRKRLVIG |
| binds | binds | binds | binds | AtPRD1 (BiFC fusion) (protein, UniProt O23277 1-1330) MFFQHSQLQNSDHLLHESMADSNHQSLSPPCANGHRSTISLRDDQGGTFCLICFSNLVSDPRIPTVHVSYALHQLSIAISEPIFLRTLLSSHIHFLVSPLVHALSSIDDAPIAIQIMDMISLLCSVEESSIGEDFVERISDQLSSGALGWSRRQLHMLHCFGVLMSCENININSHIRDKEALVCQLVEGLQLPSEEIRGEILFALYKFSALQFTEQNVDGIEVLSLLCPKLLCLSLEALAKTQRDDVRLNCVALLTILAQQGLLANSHSNSASSMSLDEVDDDPMQTAENVAARPCLNVLFAEAIKGPLLSTDSEVQIKTLDLIFHYISQESTPSKQIQVMVEENVADYIFEILRLSECKDQVVNSCLRVLDLFSLAEHSFRKRLVIGFPSVIRVLHYVGEVPCHPFQIQTLKLISSCISDFPGIASSSQVQEIALVLKKMLERYYSQEMGLFPDAFAIICSVFVSLMKTPSFGETADVLTSLQESLRHSILASLSLPEKDSTQILHAVYLLNEVYVYCTASTSINKTICIELRHCVIDVCTSHLLPWFLSDVNEVNEEATLGIMETFHSILLQNSDIQAKEFAELLVSADWFSFSFGCLGNFCTDNMKQRIYLMLSSLVDILLEQKTGSHIRDALHCLPSDPQDLLFLLGQASSNNQELASCQSAALLIFHTSSIYNDRLADDKLVLASLEQYIILNKTSLICAISDSPALLNLVNLYGLCRSLQNERYQISYSLEAERIIFHLLNEYEWDLGSINIHLESLKWLFQQESISKSLIYQIQKISRNNLIGNEVHNVYGDGRQRSLTYWFAKLISEGDNYAATLLVNLLTQLAEKEEQENDVISILNLMNTIVSIFPTASNNLSMNGIGSVIHRLVSGFSNSSLGTSFRTLLLLVFNILTSVQPAVLMIDESWYAVSIKLLNFLSLRDTAIKQNHEDMVVIGILSLVLYHSSDGALVEASRNIVSNSYLVSAINTVVDVACSKGPALTQCQDETNIGEALAFTLLLYFFSLRSLQIVLAGAVDWQTFFGTSTSLETLPVVCIHCHNLCRLMHFGAPQIKLIASYCLLELLTGLSEQVDIKKEQLQCSSSYLKSMKAVLGGLVFCDDIRVATNSALCLSMILGWEDMEGRTEMLKTSSWYRFIAEEMSVSLAMPCSASSTYVNHHKPAVYLTVAMLRLKNKPVWLRTVFDESCISSMIQNLNGINISREIVILFRELMQAELLNSQQVTKLDRAFQECRKQMHRNGTRDETVEEQVQRKIPSIHDHSEFCNYLVHLMVSNSFGHPSESETYTQKKKQILDEMEQFSELISTREGRVSPIQEETRQMQTERIV |
